The source of these data is PMC9911399, “Two distinct binding modes provide the RNA-binding protein RbFox with extraordinary sequence specificity”.

B1: CUACACU (DNA:RNA)
RNA: GGGAGACCGGAAUUCAGAUUGUCCCUACACUUUAAAUCCCGUCGUAGCCACCA
DNA 1: CAATCTGAATTCCGGTCTCCC
DNA 2: TGGTGGCTACGACGGGATT
B2: GGAGUCG (DNA:RNA)
RNA: B1 RNA with C25G, U26G, C28G, A29U, U31G
DNA 1: CAATCTGAATTCCGGTCTCCC
DNA 2: TGGTGGCTACGACGGGATT
B3: GUAAGGA (DNA:RNA)
RNA: B1 RNA with C25G, C28A, A29G, C30G, U31A
DNA 1: CAATCTGAATTCCGGTCTCCC
DNA 2: TGGTGGCTACGACGGGATT
B4: UGAGUCC (DNA:RNA)
RNA: B1 RNA with C25U, U26G, C28G, A29U, U31C
DNA 1: CAATCTGAATTCCGGTCTCCC
DNA 2: TGGTGGCTACGACGGGATT
B5: UGCACAA (DNA:RNA)
RNA: GGGAGACCGGAAUUCAGAUUGUCCUGCACAAUUAAAUCCCGUCGUAGCCACCA
DNA 1: CAATCTGAATTCCGGTCTCCC
DNA 2: TGGTGGCTACGACGGGATT
B6: CACGGGU (DNA:RNA)
RNA: B1 RNA with U26A, A27C, C28G, A29G, C30G
DNA 1: CAATCTGAATTCCGGTCTCCC
DNA 2: TGGTGGCTACGACGGGATT
B7: AAGAGUG (DNA:RNA)
RNA: B5 RNA with U25A, G26A, C27G, C29G, A30U, A31G
DNA 1: CAATCTGAATTCCGGTCTCCC
DNA 2: TGGTGGCTACGACGGGATT
B8: ACGCACG (DNA:RNA)
RNA: B1 RNA with C25A, U26C, A27G, U31G
DNA 1: CAATCTGAATTCCGGTCTCCC
DNA 2: TGGTGGCTACGACGGGATT
B9: AUGCCGA (DNA:RNA)
RNA: B1 RNA with C25A, A27G, A29C, C30G, U31A
DNA 1: CAATCTGAATTCCGGTCTCCC
DNA 2: TGGTGGCTACGACGGGATT
B10: UGAUGCU (DNA:RNA)
RNA: B1 RNA with C25U, U26G, C28U, A29G
DNA 1: CAATCTGAATTCCGGTCTCCC
DNA 2: TGGTGGCTACGACGGGATT
B11: GCGUCUG (DNA:RNA)
RNA: B5 RNA with U25G, G26C, C27G, A28U, A30U, A31G
DNA 1: CAATCTGAATTCCGGTCTCCC
DNA 2: TGGTGGCTACGACGGGATT
B12: ACUUUCC (DNA:RNA)
RNA: B1 RNA with C25A, U26C, A27U, C28U, A29U, U31C
DNA 1: CAATCTGAATTCCGGTCTCCC
DNA 2: TGGTGGCTACGACGGGATT
B13: AGGUGAA (DNA:RNA)
RNA: B5 RNA with U25A, C27G, A28U, C29G
DNA 1: CAATCTGAATTCCGGTCTCCC
DNA 2: TGGTGGCTACGACGGGATT
B14: ACCGUCU (DNA:RNA)
RNA: B1 RNA with C25A, U26C, A27C, C28G, A29U
DNA 1: CAATCTGAATTCCGGTCTCCC
DNA 2: TGGTGGCTACGACGGGATT
B15: GACGUGU (DNA:RNA)
RNA: B1 RNA with C25G, U26A, A27C, C28G, A29U, C30G
DNA 1: CAATCTGAATTCCGGTCTCCC
DNA 2: TGGTGGCTACGACGGGATT
B16: CUACAUA (DNA:RNA)
RNA: B1 RNA with C30U, U31A
DNA 1: CAATCTGAATTCCGGTCTCCC
DNA 2: TGGTGGCTACGACGGGATT
B17: CAGAGAA (DNA:RNA)
RNA: B5 RNA with U25C, G26A, C27G, C29G
DNA 1: CAATCTGAATTCCGGTCTCCC
DNA 2: TGGTGGCTACGACGGGATT
B18: CCGUUCG (DNA:RNA)
RNA: B1 RNA with U26C, A27G, C28U, A29U, U31G
DNA 1: CAATCTGAATTCCGGTCTCCC
DNA 2: TGGTGGCTACGACGGGATT
B19: UUAAAAG (DNA:RNA)
RNA: B1 RNA with C25U, C28A, C30A, U31G
DNA 1: CAATCTGAATTCCGGTCTCCC
DNA 2: TGGTGGCTACGACGGGATT
B20: UCUGAAA (DNA:RNA)
RNA: B5 RNA with G26C, C27U, A28G, C29A
DNA 1: CAATCTGAATTCCGGTCTCCC
DNA 2: TGGTGGCTACGACGGGATT
B21: GUAGACU (DNA:RNA)
RNA: B1 RNA with C25G, C28G
DNA 1: CAATCTGAATTCCGGTCTCCC
DNA 2: TGGTGGCTACGACGGGATT
B22: UUUACAU (DNA:RNA)
RNA: B5 RNA with G26U, C27U, A31U
DNA 1: CAATCTGAATTCCGGTCTCCC
DNA 2: TGGTGGCTACGACGGGATT
B23: AUCAACG (DNA:RNA)
RNA: B1 RNA with C25A, A27C, C28A, U31G
DNA 1: CAATCTGAATTCCGGTCTCCC
DNA 2: TGGTGGCTACGACGGGATT
B24: ACCAGGG (DNA:RNA)
RNA: B5 RNA with U25A, G26C, C29G, A30G, A31G
DNA 1: CAATCTGAATTCCGGTCTCCC
DNA 2: TGGTGGCTACGACGGGATT
B25: AGUCCGU (DNA:RNA)
RNA: B1 RNA with C25A, U26G, A27U, A29C, C30G
DNA 1: CAATCTGAATTCCGGTCTCCC
DNA 2: TGGTGGCTACGACGGGATT
B26: UCUAGCG (DNA:RNA)
RNA: B5 RNA with G26C, C27U, C29G, A30C, A31G
DNA 1: CAATCTGAATTCCGGTCTCCC
DNA 2: TGGTGGCTACGACGGGATT
B27: UGCACGA (DNA:RNA)
RNA: B5 RNA with A30G
DNA 1: CAATCTGAATTCCGGTCTCCC
DNA 2: TGGTGGCTACGACGGGATT
B28: UAUGAGA (DNA:RNA)
RNA: B5 RNA with G26A, C27U, A28G, C29A, A30G
DNA 1: CAATCTGAATTCCGGTCTCCC
DNA 2: TGGTGGCTACGACGGGATT
B29: UUACAUU (DNA:RNA)
RNA: B1 RNA with C25U, C30U
DNA 1: CAATCTGAATTCCGGTCTCCC
DNA 2: TGGTGGCTACGACGGGATT
B30: GACGCCU (DNA:RNA)
RNA: B1 RNA with C25G, U26A, A27C, C28G, A29C
DNA 1: CAATCTGAATTCCGGTCTCCC
DNA 2: TGGTGGCTACGACGGGATT
B31: UAUGAAA (DNA:RNA)
RNA: B5 RNA with G26A, C27U, A28G, C29A
DNA 1: CAATCTGAATTCCGGTCTCCC
DNA 2: TGGTGGCTACGACGGGATT
B32: GUGCGCA (DNA:RNA)
RNA: B1 RNA with C25G, A27G, A29G, U31A
DNA 1: CAATCTGAATTCCGGTCTCCC
DNA 2: TGGTGGCTACGACGGGATT
B33: UGAGAAU (DNA:RNA)
RNA: B1 RNA with C25U, U26G, C28G, C30A
DNA 1: CAATCTGAATTCCGGTCTCCC
DNA 2: TGGTGGCTACGACGGGATT
B34: AUCAAAU (DNA:RNA)
RNA: B1 RNA with C25A, A27C, C28A, C30A
DNA 1: CAATCTGAATTCCGGTCTCCC
DNA 2: TGGTGGCTACGACGGGATT
B35: ACAAUAA (DNA:RNA)
RNA: B5 RNA with U25A, G26C, C27A, C29U
DNA 1: CAATCTGAATTCCGGTCTCCC
DNA 2: TGGTGGCTACGACGGGATT
B36: GUUGCUG (DNA:RNA)
RNA: B1 RNA with C25G, A27U, C28G, A29C, C30U, U31G
DNA 1: CAATCTGAATTCCGGTCTCCC
DNA 2: TGGTGGCTACGACGGGATT
B37: UCCUAGU (DNA:RNA)
RNA: B1 RNA with C25U, U26C, A27C, C28U, C30G
DNA 1: CAATCTGAATTCCGGTCTCCC
DNA 2: TGGTGGCTACGACGGGATT

Changes are numbered by the printed parent chain; changes in the protein carry UniProt numbers. Some of the results follow.

This experiment addresses T1, RBFOX1 RRM (Homo sapiens, UniProt Q9NWB1 109-208).
T1 sequence: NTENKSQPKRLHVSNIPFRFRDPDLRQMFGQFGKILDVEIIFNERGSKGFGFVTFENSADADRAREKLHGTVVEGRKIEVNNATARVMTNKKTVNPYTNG
The experiment is described as follows: EMSA; HiTS-Eq, 1 nM pool, 10 min; buffer printed only for the single-RNA assays: 10 mM Tris pH 7.5, 150 mM NaCl, 3.4 mM EDTA, 0.001% NP-40, 30 C. The settings on record: tags: His6 N-terminal (pET28a); label: 5' 32P. A digest of the protocol: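 A pool of RNA with 7 randomized nucleotides, 5′-radiolabelled and with DNA-annealed flanks, was equilibrated at 1 nM for 10 min in 50 µL with purified RbFox RRM, wild type or mutant, across increasing protein concentrations. Free RNA was separated by 8% native PAGE, excised, reverse-transcribed, barcoded by PCR and sequenced. Relative association constants were obtained from read-count changes of each RNA species versus the control reaction and normalised to the cognate motif.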
B1: the binding signal is 0.00154 KA relative to UGCAUGU. B2: the binding signal was 0.0211 KA relative to UGCAUGU. The result for B3 reads 0.001 KA relative to UGCAUGU; that for B4, 0.0156 KA relative to UGCAUGU. The result for B5 reads 0.00911 KA relative to UGCAUGU; that for B6, 0.00452 KA relative to UGCAUGU.

In the case of B7, the binding signal is 0.00946 KA relative to UGCAUGU. B8: the binding signal was 0.0314 KA relative to UGCAUGU. The result for B9 reads 0.02 KA relative to UGCAUGU; that for B10, 0.0276 KA relative to UGCAUGU; that for B11, 0.0191 KA relative to UGCAUGU. In the case of B12, the binding signal is 0.00164 KA relative to UGCAUGU. B13: the binding signal is 0.00772 KA relative to UGCAUGU. For the molecule B14, the binding signal was 0.00603 KA relative to UGCAUGU. The result for B15 reads 0.0146 KA relative to UGCAUGU. To B16 belongs 0.000812 KA relative to UGCAUGU. The result for B17 reads 0.00711 KA relative to UGCAUGU; that for B18, 0.0126 KA relative to UGCAUGU. For B19, the binding signal is 0.00649 KA relative to UGCAUGU. B20: the binding signal is 0.0135 KA relative to UGCAUGU. To B21 belongs 0.00669 KA relative to UGCAUGU; to B22, 0.00198 KA relative to UGCAUGU. B23: the binding signal is 0.00102 KA relative to UGCAUGU.

As for B24, the binding signal was 0.00782 KA relative to UGCAUGU. The result for B25 reads 0.00929 KA relative to UGCAUGU; that for B26, 0.0126 KA relative to UGCAUGU.

For B27, the binding signal was 0.0767 KA relative to UGCAUGU. On to B28, for which the binding signal is 0.0129 KA relative to UGCAUGU. To B29 belongs 0.00209 KA relative to UGCAUGU; to B30, 0.0147 KA relative to UGCAUGU; to B31, 0.00875 KA relative to UGCAUGU. The result for B32 reads 0.0175 KA relative to UGCAUGU. The result for B33 reads 0.0227 KA relative to UGCAUGU.

As for B34, the binding signal is 0.000176 KA relative to UGCAUGU. As to B35, the binding signal is 0.00274 KA relative to UGCAUGU. The result for B36 reads 0.0225 KA relative to UGCAUGU; that for B37, 0.00548 KA relative to UGCAUGU.
